# Data published in PubChem BioAssay AID588795 (National Center for Advancing Translational Sciences (NCATS), 2011).
# Out of some 390,000 compounds screened, about 1,400 (0.36%) were called active. The shares of active, inactive and inconclusive entries below differ from those in the screen. Calls follow the shape of the dose curve; as a rule, active = well fitted inhibition curve with a large enough effect; inconclusive = small, poorly fitted or top-dose-only effect; inactive = no such curve, though single readings can be large or run the other way. Potencies beside an inconclusive call are fits to weak or partial responses and may not hold up.
# Target: Flap endonuclease 1 (Homo sapiens) (UniProt P39748)
# Assay: qHTS Assay for the Inhibitors of Human Flap endonuclease 1 (FEN1). Also: nearly all actives have a fitted effect of over 65% in size.
# Settings: Recombinant FEN1 flap cleavage, fluorescence, 15 min; series mostly up to 114 µM; activity change, negative = inhibition: at the top concentration
# Method in brief: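 Nuclease activity of 10 nM FEN1 was measured after 15 min of room-temperature exposure to titrated compounds, by adding 50 nM flap substrate and reading plates at 0 and 15 min.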
# % is scaled to controls: 0 for no effect and ±100 for the full control effect; potency is read from the fitted curve at half-maximal effect; tags tell the direction and shape of the fitted curve.
# Chain of UniProt P39748 (P39748 whole entry, looked up): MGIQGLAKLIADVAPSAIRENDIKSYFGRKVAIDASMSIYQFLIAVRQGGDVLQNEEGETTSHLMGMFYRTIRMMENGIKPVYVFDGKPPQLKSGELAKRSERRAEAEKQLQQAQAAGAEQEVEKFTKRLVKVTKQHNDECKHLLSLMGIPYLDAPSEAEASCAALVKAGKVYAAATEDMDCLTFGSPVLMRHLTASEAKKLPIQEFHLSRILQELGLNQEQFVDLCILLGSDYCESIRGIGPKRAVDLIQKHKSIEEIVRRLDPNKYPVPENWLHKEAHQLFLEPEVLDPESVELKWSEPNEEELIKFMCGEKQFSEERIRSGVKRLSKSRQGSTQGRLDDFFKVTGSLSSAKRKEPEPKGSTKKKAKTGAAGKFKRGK
Compound,Potency,"activity change, negative = inhibition"
CC(C)(C)c1nnc(NC(=O)C2c3ccccc3Oc3ccccc32)s1,"inconclusive: 79.4 µM [inhibitor, single point]",
CCOC(=O)C1=C(c2ccccc2)N=c2s/c(=C\c3ccc(O)cc3)c(=O)n2C1c1cccs1 (stereo unspecified),"inconclusive: 79.4 µM [inhibitor, partial curve, poor fit]",
CCOc1ccccc1NC(=O)CSc1nc2c(sc3ccccc32)c(=O)n1CCCC(=O)NC1CCCC1,,inactive: 13.4%
O=C1C=C(Nc2ccc(O)cc2)CC(c2ccco2)C1 (stereo unspecified),,inactive: 9.19%
O=C1CC(=O)N(CCc2ccccc2)C(=O)N1CCc1ccccc1,"inconclusive: 89.1 µM [inhibitor, partial curve, poor fit]",
Cc1ccnc(NC(=O)CS(=O)(=O)c2ccccc2)c1,,inactive: -2.06%
C[C@@H](NCCCn1cnc2c(OCc3ccccc3)ncnc21)c1cccc2ccccc12,"inconclusive: 89.1 µM [inhibitor, partial curve, poor fit]",
CN1CCN(S(=O)(=O)c2csc(C(N)=O)c2)CC1,"inconclusive: 22.4 µM [inhibitor, single point]",
COC(=O)c1c(-c2ccc(OC)cc2)sc2cc(OC)c(OC)cc12,"inconclusive: 89.1 µM [inhibitor, partial curve, poor fit]",
O=S(=O)(c1ccccc1Cl)N1CCN(c2nc(-c3cccs3)nc3ccccc23)CC1,inactive,
CCOC(=O)c1cc(NC(=O)/C=C\C(=O)O)ccc1Cl,,inactive: 9.97%
NS(=O)(=O)c1ccc(N=Nc2c[nH]c(=O)c(O)c2)cc1,"inconclusive: 50.1 µM [inhibitor, partial curve]",
Cc1[nH]c(=O)[nH]c1C(=O)CCCCC(=O)O,,inactive: -23.8%
CCOC(=O)CN1C(C(=O)c2ccccc2)=C(OC(=O)C(C)(C)C)c2ccccc2S1(=O)=O,"inconclusive: 70.8 µM [inhibitor, partial curve, poor fit]",
CC(=O)Nc1cc(=O)c2cccnc2[nH]1,"inconclusive: 56.2 µM [inhibitor, partial curve]",
CCOC(=O)c1ccc(NC(=O)CSc2nc(C)cc(=O)[nH]2)cc1,"inconclusive: 50.1 µM [inhibitor, partial curve, poor fit]",
CCOC(=O)C1=C(c2ccccc2)OC(N)=C(C#N)C1C1CCCCC1 (stereo unspecified),"inconclusive: 31.6 µM [inhibitor, partial curve, poor fit]",
CCN(CC)CCn1c2ccc(Cl)cc2c2nc(C)sc21,"inconclusive: 56.2 µM [inhibitor, partial curve, poor fit]",
COc1ccc2ncccc2c1Cc1c(OC)ccc2ncccc12,"inconclusive: 89.1 µM [inhibitor, partial curve, poor fit]",
O=C(Nc1ccc(-c2nc3ccccc3o2)c(O)c1)c1cc(-n2cnnc2)ccc1Cl,"inconclusive: 89.1 µM [inhibitor, single point]",
Cc1ccc(C)c(CSc2nnc(C)c(=O)[nH]2)c1,,inactive: -2.74%

Compound,Potency,"activity change, negative = inhibition"
CC(NC(=O)COC(=O)c1ccc([N+](=O)[O-])o1)c1ccccc1 (stereo unspecified),"inconclusive: 17.8 µM [inhibitor, full curve, poor fit]",
O=C(Nc1cc(Cl)cc(Cl)c1)c1coc(=O)c(Br)c1,"inconclusive: 56.2 µM [inhibitor, partial curve, poor fit]",
O=C(CCN1C(=O)/C(=C/c2ccccc2Cl)SC1=S)NC1C=CS(=O)(=O)C1 (stereo unspecified),"inconclusive: 79.4 µM [inhibitor, partial curve, poor fit]",
CCN(CC)CCCN1C=C2C(=O)C(C)(OC(=O)CCC(=O)OC)C(=O)C(Br)=C2C=C1c1ccc(OC)cc1 (stereo unspecified),"inconclusive: 22.4 µM [inhibitor, partial curve, poor fit]",
CC(C)[C@H](NC(=O)C1CC(=O)N(c2ccc(F)cc2)C1)C(=O)N1CCCCC1 (stereo partly specified),"inconclusive: 89.1 µM [inhibitor, partial curve, poor fit]",
CCc1ccc(-c2cn3c(n2)sc2cc(C(=O)NCCC4=CCCCC4)ccc23)cc1,,inactive: -3.09%
CCOC(=O)c1ccc(NC(=O)CSc2cn(CC(=O)N3CCCC3)c3ccccc23)cc1,,inactive: -10.4%
COc1ccc(C2CC(C(C)(C)C)=NN2c2ccc(S(N)(=O)=O)cc2)cc1 (stereo unspecified),"inconclusive: 79.4 µM [inhibitor, partial curve, poor fit]",
O=C(O)c1cc(-c2ccco2)nn1-c1cccc(Cl)c1,,inactive: -28.6%
O=C1OC(c2ccc(Br)cc2)=N/C1=C\c1ccco1,,inactive: -1.23%
CN1CCN(c2nc(-c3cccc([N+](=O)[O-])c3)nc3ccccc23)CC1,"inconclusive: 44.7 µM [inhibitor, partial curve, poor fit]",
Cc1ccc(CC(=O)Nc2ccc3c(c2)N(C)C(=O)c2ccccc2S3)cc1,"inconclusive: 89.1 µM [inhibitor, partial curve, poor fit]",
CCCNC(=O)c1ccc2c(=O)n3c(-c4ccc(C)cc4)csc3nc2c1,"inconclusive: 79.4 µM [inhibitor, single point]",
COc1ccccc1NC(=O)CSc1nnc(NC(=O)Nc2ccc(C)cc2)s1,,inactive: -5.31%
CCOC(=O)N1CCN(c2cc(NCCC(=O)O)c3c4c(onc24)-c2ccccc2C3=O)CC1,"inconclusive: 28.2 µM [inhibitor, full curve]",
COc1cccc(C(=O)/C=C2\NCCc3cc(OC)c(OC)cc32)c1,"inconclusive: 79.4 µM [inhibitor, partial curve, poor fit]",
CCOc1ccc(OCC(=O)NCCS(=O)(=O)N2CCN(c3ccccc3F)CC2)cc1,,inactive: -0.285%
COc1cccc2cc(C(=O)NCc3ccco3)c(=Nc3ccc(C(=O)O)cc3)oc12,"inconclusive: 56.2 µM [inhibitor, partial curve]",
O=[N+]([O-])c1cc(/C=N\Nc2nc(-c3ccccc3)cs2)ccc1O,"inconclusive: 79.4 µM [inhibitor, partial curve, poor fit]",
c1ccc2nc3c(nc2c1)c1ccccc1n3CCN1CCOCC1,"inconclusive: 56.2 µM [inhibitor, partial curve]",
